The source of these data is patent US20240190987A1, “Engineered EpCam Binding Antibodies” (TigaTX, priority 2021, published 2024).

Entries after “also recorded” stand apart in the source; their conditions may differ.

Holding throughout (format): in vivo
A short description of data set [1]: Ab1060 pharmacokinetics in cynomolgus macaques. As to conditions: single IV infusion 0.1 to 3.0 mg/kg. Here is the method: FIG. 45 depicts the pharmacokinetic profile of a αCD3 T-LITE antibody in cynomolgus macaques. Cynomolgus macaques were injected with Ab1060 as a single intravenous infusion over 15 minutes at doses from 0.1 to 3.0 mg/kg (n=1 animals per dose level). Blood samples were collected at 1 hr, 3 hr, 6 hr, 1 d, 2 d, 3 d, 4 d, 5 d, 6 d, 7 d, 8 d, 9 d, and 10 d post-infusion with potassium EDTA as the anticoagulant, then processed to plasma and frozen. Antibody concentrations in plasma were measured using an ELISA specific for human IgG.
Two male and two female cynomolgus macaques (Mauritius origin) were distributed to 4 groups (n=1 per group). Animals were fasted overnight prior to dosing. Antibodies were dosed in alert animals at Time=0 hr via intravenous infusion using an infusion pump over 15 minutes. A postdose flush of saline was administered at a volume of approximately 1 mL. Blood (400 μL) was sampled serially at 13 time points post-infusion (1 hr, 3 hr, 6 hr, 1 d, 2 d, 3 d, 4 d, 5 d, 6 d, 7 d, 8 d, 9 d, and 10 d) with potassium EDTA as the anticoagulant, then processed to plasma and frozen. Plasma concentrations were quantified using an anti-human IgG sandwich ELISA that was developed and qualified in-house as described above. Pharmacokinetic parameters were calculated using the Phoenix WinNonLin software package (Certara, Princeton, NJ).

The nature of data set [2]: Tolerability (body weight) in transgenic B-hCD3E mice. As to conditions: single IV dose: Ab1062 1 mg/kg, Ab1060 10 mg/kg; up to 5 days. The method, then: FIG. 47 depicts changes in body weight and plasma cytokine levels in B-hCD3E transgenic mice treated with a single dose of the αCD3 T-LITE antibody or a control TCE. The control TCE contains an anti-mouse EpCAM Fab instead of the LS2B domains, and would therefore be expected to redirect T-cells to target endogenous EpCAM-expressing tissues. Mice were injected with Ab1062 or Ab1060 as a single bolus intravenous injection at doses of 1 or 10 mg/kg, respectively (n=4 animals per dose level). Body weights were measured 3 and 5 days post-injection. Whole blood samples were collected at −96, 2, 6, 24, 72, and 120 hours relative to the time of injection, with potassium EDTA as the anticoagulant. The concentration of 18 cytokines in the plasma were measured using a bead-based multiplex assay.
Transgenic mice expressing the extracellular domain of the human CD3E gene were used to assess the tolerability of a CD3 T-LITE incorporating the SP34v68-5 clone and LS2B Fab R5M2 (Ab1060) (FIG. 47). A separate group of mice was injected with a surrogate conventional TCE incorporating the anti-mouse the SP34v68-5 clone and the anti-mouse EpCAM clone G8.8 (Ab1062) as a positive control for T-cell activation. […] The body weight loss associated with Ab1062 was correlated with a spike in cytokine release into the peripheral blood, as measured by a multiplexed cytokine assay. […]

A further data set deals with CD4+ T-cells. The experiment in a line: Ab1060 cell surface binding to peripheral T-cells in cynomolgus macaques. The conditions noted are these: 0.1 to 3.0 mg/kg IV, flow cytometry. Here is the method: Cynomolgus macaques were injected with Ab1060 as a single intravenous infusion over 15 minutes at doses from 0.1 to 3.0 mg/kg (n=1 animals per dose level). Whole blood samples were collected at 1, 24, 48, 72, 96, 168, 192 and 240 hours post-infusion with potassium EDTA as the anticoagulant. The amount of surface-bound Ab1060 was detected using a fluorescent PE-conjugated anti-human IgG antibody measured by flow cytometry. The median fluorescence intensity (MFI) was normalized to the maximum MFI observed across all samples in the experiment.
Two male and two female cynomolgus macaques (Mauritius origin) were distributed to 4 groups (n=1 per group). Animals were fasted overnight prior to dosing. Antibodies were dosed in alert animals at Time=0 hr via intravenous infusion using an infusion pump over 15 minutes. A postdose flush of saline was administered at a volume of approximately 1 mL. Blood (200 μL) was sampled serially at 8 time points post-infusion (1, 24, 48, 72, 96, 168, 192 and 240 hr) with potassium EDTA as the anticoagulant, then washed by centrifugation, and blocked with TruStain FcX (BioLegend, San Diego, CA) prior to antibody staining. […] Data was analyzed with the FlowJo software package (BD Bioscience). […] Median fluorescence intensity (MFI) of the PE channel in each sample was calculated and expressed as a normalized value relative to the sample with the highest MFI.

B1: Ab1060: CD3 T-LITE incorporating the SP34v68-5 clone and LS2B Fab R5M2 (protein)
light: DIQMTQSPSSLSASVGDRVTITCRASQSVSSAVAWYQQKPGKAPKLLIYSASSLYSGVPSRFSGSRSGTDFTLTISSLQPEDFATYYCQQGGYSLITFGQGTKVEIKRTVAAPSVFIFPPSDSQLKSGTASVVCLLNNFYPREAKVQWKVDNALQSGNSQESVTEQDSKDSTYSLSSTLTLSKADYEKHKVYACEVTHQGLSSPVTKSFNRGEC
heavy 1: EVQLVESGGGLVQPGGSLRLSCAASGFTFNTYAMNWVRQAPGKGLEWVARIRSKYNNYATYYADSVKGRFTISRDDSKSILYLQMNSLRAEDTAVYYCVRHGNFGNSYVSWFAYWGQGTLVTVSSGGGGSGGGGSGGGGSDIQVTQSPSSLSASVGDRVTITCRSSTGAVTTSNYANWVQQKPGKAFKGLIGGTNKLAPGVPSRFSGSLSGDDATLTISSLQPEDFATYYCALWYSNLWVFGQGTKLEIKGGGGS[human IgG1 Fc with changes left out]
heavy 2: EVQLVESGGGLVQPGGSLRLSCAASGFDFSSYSIHWVRQAPGKGLEWVASISPYYGSTYYADSVKGRFTISADTSKNTAYLQMNSLRAEDTAVYYCARYYEWYKYDLYAGSLGFDYWGQGTLVTVSSASTKGPSVFPLAPSSKSTSGGTAALGCLVKDYFPEPVTVSWNSGALTSGVHTFPAVLQSSGLYSLSSVVTVPSSSLGTQTYICNVNHKPSNTKVDKKVEPKSCDKTHTGGGGSGGEVQLVESGGGLVQPGGSLRLSCAASGFDFSSYSIHWVRQAPGKGLEWVASISPYYGSTYYADSVKGRFTISADTSKNTAYLQMNSLRAEDTAVYYCARYYEWYKYDLYAGSLGFDYWGQGTLVTVSSASTKGPSVFPLAPSSKSTSGGTAALGCLVKDYFPEPVTVSWNSGALTSGVHTFPAVLQSSGLYSLSSVVTVPSSSLGTQTYICNVNHKPSNTKVDKKV[human IgG1 Fc with changes left out]
modifications: REGION 1..214: note = Ab1060 Hole LC; REGION 1..482: note = Ab1060 Knob HC; REGION 1..699: note = Ab1060 Hole HC
notes: CD3 T-LITE incorporating the SP34v68-5 clone and LS2B Fab R5M2
In the case of B1, in data set [1], the plasma half-life lay within 96 to 140 h. The “body weight change / tolerability” value in data set [2] is given as “no evidence of body weight loss; also recorded: did not”. The “binding to T-cells in peripheral blood after dosing” value in the data set with CD4+ T-cells is “confirmed; also recorded: dose-dependent binding”.
